Results published in the supplement of paper PMC3334620.
Whole data set: some 33,000 sequences, median “E-score (-0.5 to 0.5)” near -0.054, cut for the highest 2% near 0.35. Some of the results follow.

Target: T1, Stb5 (UniProt P38699)
T1 sequence: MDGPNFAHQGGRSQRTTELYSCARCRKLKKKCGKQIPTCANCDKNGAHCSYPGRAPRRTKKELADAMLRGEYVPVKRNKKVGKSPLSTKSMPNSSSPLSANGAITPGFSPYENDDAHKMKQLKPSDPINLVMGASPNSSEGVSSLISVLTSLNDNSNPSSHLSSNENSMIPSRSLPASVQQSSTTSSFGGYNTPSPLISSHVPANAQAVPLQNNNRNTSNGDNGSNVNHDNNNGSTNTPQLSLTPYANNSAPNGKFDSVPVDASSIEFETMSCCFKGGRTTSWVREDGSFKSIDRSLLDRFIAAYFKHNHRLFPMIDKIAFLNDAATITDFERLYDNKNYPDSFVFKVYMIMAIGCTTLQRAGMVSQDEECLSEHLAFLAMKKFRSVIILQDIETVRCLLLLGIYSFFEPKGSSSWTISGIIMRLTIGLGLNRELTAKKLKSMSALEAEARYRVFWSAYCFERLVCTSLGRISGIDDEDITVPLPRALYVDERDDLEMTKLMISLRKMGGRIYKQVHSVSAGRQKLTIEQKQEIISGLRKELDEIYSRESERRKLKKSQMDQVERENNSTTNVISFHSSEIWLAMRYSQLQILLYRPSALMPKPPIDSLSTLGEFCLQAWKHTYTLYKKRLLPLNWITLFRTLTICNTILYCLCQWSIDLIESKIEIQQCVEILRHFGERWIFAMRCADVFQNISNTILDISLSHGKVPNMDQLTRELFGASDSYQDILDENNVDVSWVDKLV
Assay: PBM E-score (8-mer binding enrichment) (E-score (-0.5 to 0.5)); higher = stronger / more preferred TF binding; most listed sequences are background and not binding sites
Conditions: protein concentration: 200 nM; construct: GST-full length
Method: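 Universal 'all 10-mer' protein binding microarrays (Agilent AMADID 015681) probed with GST-tagged S. cerevisiae TFs (full-length or DBD) made by in vitro transcription/translation (PURExpress), about 100-200 nM. Bound TF was detected with fluorescent anti-GST. Each ungapped 8-mer (which stands for itself and its reverse complement) is scored by the PBM enrichment score (E-score), a modified Wilcoxon-Mann-Whitney statistic from -0.5 to +0.5, computed with the Universal PBM Analysis Suite. Scale: above 0.35 generally sequence-specific binding.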

| Sequence | PBM E-score |
| --- | --- |
| TTGAGCAA | -0.289 |
| GCAGAGAC | -0.0689 |
| GAGTACGC | -0.253 |
| GCAGGGTA | -0.216 |
| TGGACACA | -0.0717 |
| ATGAGGTG | -0.266 |
| AATCCCTG | -0.149 |
| ACTGGAAC | -0.0631 |
| TTTATAAA | 0.286 |
| ATCGCTCG | -0.109 |
| ACTACACT | -0.255 |
| ACGATAAC | 0.0877 |
| AAGCCAGT | -0.307 |
| AGTCGATG | -0.234 |
| AAGACGAG | -0.166 |
| ATGTCACG | -0.0387 |
| CGATGATC | -0.0354 |
| ACTCGCGG | 0.203 |
| AGGGAGGC | -0.159 |
| GAGGCAAA | -0.184 |
| GACGGTGC | 0.392 |
| AGCGTTGA | -0.0135 |
| GTGGCCAC | -0.00927 |
| ATTCAGGA | -0.135 |
| ATAGAGGC | -0.189 |

| Sequence | PBM E-score |
| --- | --- |
| CCATATGA | -0.131 |
| GCATGGTA | -0.0259 |
| AAAGAACT | -0.11 |
| CTTCACGA | -0.173 |
| AGTATCGC | 0.0902 |
| GTATCGAA | 0.0312 |
| CTTTTCGA | -0.19 |
| CGAACAAA | 0.0211 |
| TATTCGCA | -0.161 |
| CCCACCGC | 0.221 |
| GACCTCAA | -0.123 |
| CAGCGAAG | -0.108 |
| ATCTCCTG | 0.0471 |
| GCGGCGCC | 0.326 |
| CAACCGAG | -0.0958 |
| GCACGCCA | -0.243 |
| ATTGTTCG | 0.0214 |
| GCTCGAAA | 0.0656 |
| TCTCTAAA | -0.0864 |
| AACCTTGG | -0.0674 |
| CGCATTAA | 0.0361 |
| CCTCCTGC | -0.304 |
| CTGGACAA | -0.236 |
| CAACCCAG | -0.146 |
| ACCACCGA | 0.357 |

| Sequence | PBM E-score |
| --- | --- |
| CGACAAAA | 0.0666 |
| GGTTTTGA | 0.074 |
| GGTTCAGA | -0.246 |
| AGTGCGAT | 0.0295 |
| TCTGCCCA | -0.163 |
| TCCAGAGA | -0.208 |
| CCGATACC | 0.213 |
| TCAATAAA | -0.0262 |
| CTTTTGGA | -0.0799 |
| AGAGGACC | -0.182 |
| CCCTCACA | -0.253 |
| ACCATCTC | -0.0516 |
| AGGAGGAC | -0.264 |
| CCGCTCTA | 0.284 |
| CTGGGGGA | -0.233 |
| CAATGGGG | -0.0137 |
| CGAACACC | 0.14 |
| CATAGTTC | 0.0483 |
| GCATGGCC | 0.003 |
| TCGTACGA | -0.123 |
| GCCTTCCC | 0.0183 |
| AACCACGG | -0.00831 |
| ATATAATC | 0.0583 |
| CCCAGCGG | 0.245 |
| ATTGGGCC | 0.0328 |

| Sequence | PBM E-score |
| --- | --- |
| AGCTAGGG | -0.0617 |
| ACTCTCGA | -0.367 |
| CAGCCCAC | -0.0872 |
| GCGGGGCC | 0.335 |
| ACAGTCCG | 0.191 |
| ACCCTATG | -0.294 |
| CGTATTAA | -0.0376 |
| TATAAAGA | -0.0662 |
| CCCGGCCC | 0.163 |
| ACTAAGTC | -0.00313 |
| ACTATCGC | -0.0394 |
| AAAGCTGT | -0.153 |
| GCCAATAA | -0.0464 |
| CTTCTTAC | 0.102 |
| AATACGAG | -0.188 |
| AATGAACG | -0.18 |
| AACCATCC | 0.00285 |
| AACCTACC | -0.0234 |
| AACAAAAT | -0.154 |
| CAGGCTCC | 0.0628 |
| ATTCGCTA | -0.286 |
| AAACCGTA | -0.0322 |
| AATCATCC | 0.00355 |
| GATATAGA | -0.162 |
| CATACGGC | 0.212 |

| Sequence | PBM E-score |
| --- | --- |
| AGGGCGCC | -0.0741 |
| CTCATCAA | -0.178 |
| ATGATCTA | -0.0693 |
| CGATAGCA | 0.0668 |
| CGACCCCA | 0.0535 |
| CTCAACCA | -0.149 |
| ACGGTTGG | -0.0945 |
| ACTAGGCT | -0.252 |
| CACGCACC | 0.102 |
| ACCAGTAC | -0.103 |
| CCTTCTAG | -0.19 |
| CTGTCTGC | -0.207 |
| AGGCTAGA | -0.121 |
| CTGGGTAC | -0.106 |
| AGTGGAAC | -0.0518 |
| AGGTCACT | -0.305 |
| ACGGTAGG | 0.108 |
| AGCGAACC | -0.0988 |
| TCCGTAGA | 0.2 |
| TAAACCTA | -0.0733 |
| CAGGCTTA | -0.112 |
| AGAAAGCT | -0.0757 |
| GGGACTGA | -0.172 |
| CTGGATGA | -0.148 |
| CCGCTAGA | 0.21 |

| Sequence | PBM E-score |
| --- | --- |
| AGAAGGTG | -0.0907 |
| GGGGTAAA | 0.283 |
| AGTAGGAG | -0.232 |
| AGATCGCA | -0.0404 |
| AACAGTCC | 0.0174 |
| GGCGGGCA | 0.249 |
| ACGGACCT | 0.426 |
| AGGAAGCG | -0.1 |
| CGAAGAGA | -0.138 |
| AGGCATCA | -0.202 |
| CGCCGACC | 0.345 |
| CCGCACCC | 0.232 |
| ACGCCCAG | -0.295 |
| TCAGATAA | 0.00199 |
| ATATACCC | 0.371 |
| ATGAGAAT | -0.0864 |
| CGCGAGCG | 0.239 |
| AAGACACT | -0.21 |
| AGGTCTGG | -0.277 |
| CGCACGAG | 0.0521 |
| CTATACAG | -0.174 |
| AGTTCTTA | -0.059 |
| CGGTGCGC | 0.253 |
| CACTGCTC | -0.117 |
| GGTTATAC | 0.167 |

| Sequence | PBM E-score |
| --- | --- |
| CACGTCTA | -0.207 |
| AATCTTTC | -0.0622 |
| GCACCCTA | -0.312 |
| AATCCGTA | 0.1 |
| AATCACTG | 0.162 |
| GTATGAAC | -0.0796 |
| ATACACTG | -0.238 |
| GCTGGGAC | -0.111 |
| ACACTCGG | -0.0647 |
| GACATACC | 0.153 |
| GTCGTTCA | -0.157 |
| GATTTAAC | 0.2 |
| CTACGGCA | 0.14 |
| CCGGCCAA | 0.192 |
| CTGTGTTA | -0.0928 |
| GGTTTCTA | -0.0116 |
| ATTATCCA | -0.0234 |
| CTGTAGGC | -0.107 |
| TCTCATCA | -0.186 |
| ATTAATCG | 0.172 |
| GTGGGGCA | -0.0415 |
| ATCACTTA | -0.124 |
